Source: the supplement of paper PMC11417369
± gives the standard deviation of the averaged measurements. Some of the results follow.

System: PfAP2-LT AP2 domain (GST-tagged)
Assay: gcPBM binding intensity (ln(normalized median fluorescence intensity)); higher = stronger DNA binding
Summary of the method: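 The binding buffer was 1× PBS containing 1% milk, 0.2 mg/ml BSA, 0.5% salmon testes DNA and 0.03% Triton X-100. In it, GST-tagged P. falciparum DNA-binding domains expressed in E. coli were applied for 1 h to an Agilent 4 × 180k array of primer-extended double-stranded 36-bp intergenic genomic probes plus negative controls. Binding intensity, read with Alexa488 anti-GST antibody and a 488 nm scan, is the highest Masliner-normalised natural-log median intensity across replicate spots of either probe orientation.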

Point of comparison: “GATATATAAACATATACACACAAAAACATATTTATA [CACACA_site6734]”, “gcPBM binding intensity (ln)” value 9.03 ± 0.42. Against it:
- TCCCCCTTTTTTTGATTTTTATCTTAATTCTAAAAG [GTGCAC_negctrl_site541] — within error, 8.65 ± 0.31
- ATATATATATATATATGTACATATTTTTTATTTTAT [XGTACX_site5761] — higher, 9.655 ± 0.078
- TTTAACGTTGAATATACACACATATATATATATATA [CACACA_site3698] — higher, 9.55 ± 0.042
- ATATATTTTTGTAGTGTGCACGTTTATATGGTGAAA — within error, 8.93 ± 0.34
- TATAAACATATCATATGTACATATATTTTTATAAAA [XGTACX_site8882] — within error, 8.54 ± 0.47
- AAGAAAAAATAAAAAATAAAAATAAAAAATAAAAAA [TGCATGCA_negctrl_site274] — within error, 8.56 ± 0.59
- TAAGGATGAATCCTTTGTACATATATATATATATAT [XGTACX_site1242] — within error, 9.27 ± 0.042
- TTTTTTTAAATATACACACACATTTATACATATATA [CACACA_site3400] — within error, 9.1 ± 0.39
- TGAAAAGAAAACACATGTACAAATATATAAATATAA [XGTACX_site6098] — within error, 9.01 ± 0.48
- GTTATACATTTTGATTGTACATAAACCATTTGAGCA [XGTACX_site7283] — within error, 8.72 ± 0.41
- TTTATATATATTCTCACACACTTTTTATTTTAACAA [CACACA_site4534] — within error, 8.84 ± 0.53
- ATAAATTTCCTCGTTTTTTTTTTTTTTTTTTTTTTT [CACACA_negctrl_site1173] — within error, 8.76 ± 0.16
- AAAAATATTTATAACACACACATAATATTTATATAT [CACACA_site7238] — within error, 9.21 ± 0.38
- ATATATTTACATATTACACACAATATTGTACACATA [CACACA_site6564] — within error, 9.29 ± 0.34
- TTTCTTTTTAAATAGGTGCATATTTTTATAAATATA — within error, 8.4 ± 0.43
- TTAAATATAATATTATGTACTAAATATTTTTTTATT [XGTACX_site6121] — within error, 8.43 ± 0.63
- CTATTTCAGAAACACACACACACAAACAAACATATA [CACACA_site978] — higher, 9.925 ± 0.092
- TATTTGAAAGCCAATTGTACTTTAGTTTTTGAAACA [XGTACX_site5542] — within error, 8.29 ± 0.44
- CAAGAAATTTACAAACGTACATATGTTCATACAAGG [XGTACX_site2372] — within error, 8.89 ± 0.49
- TTAGAGAAACAAAATTGTACATTATAAATTTGCCTT [XGTACX_site440] — within error, 8.54 ± 0.43
- TATATATATATATATATATATATGTATGTGCATTTA [TGCATGCA_negctrl_site53] — higher, 9.72 ± 0.11
- ATTTAGAAAAATAAAACACACATATATATGTAAATA [CACACA_site4113] — within error, 8.96 ± 0.35
- ATATAAAAATGTAAGGGTACATAATAAATAATCAAA [XGTACX_site5217] — within error, 9.02 ± 0.49
- ATCTGTCGACAGGACAGTACACAGTAGCCAGGAAAT [XGTACX_site1994] — within error, 9.16 ± 0.42
- TATATCTTACTTTTTGCACACACTAATATTATTGTT [CACACA_site1640] — within error, 9.52 ± 0.3
- ACAAAATTTACAAAATGTACAAAATTTACAAAATGT [XGTACX_site6464] — within error, 8.81 ± 0.35
- GAAGGAAAAACAGAATGTACATAAATAAACGTATAT [XGTACX_site753] — within error, 9.32 ± 0.66
- AATACGGCAAACATTAAAAAATATAATAACAATAAA [CACACA_negctrl_site868] — within error, 8.8 ± 0.54
- GGAAAAAATATATGCACACCCCCCAAAAAAAAAAAA [CACACA_site2222] — higher, 10.5 ± 0.13
- AAAAAATATTAATATAGTACTTTATATTTATAAGTA [XGTACX_site6895] — within error, 8.35 ± 0.6
- TTTTTGTTATTTTTAGTGCACATTTAAGGGTGTATT — within error, 8.86 ± 0.43
- AATATACAAAATATCACACATATAAAATAATATATA [CACACA_site6067] — within error, 8.88 ± 0.45
- TGATAATTTCATTTTGCATGTGACAATACAAGATGT [TGCATGCA_site203] — within error, 8.67 ± 0.42
- AAATAATATGTAATCAAATTCACCAAACGAAAAAAA [TGCATGCA_negctrl_site33] — within error, 8.84 ± 0.5
- AATGGTTCAACGTAGTGTACGTAATAAATAATAAAT [XGTACX_site8668] — within error, 8.86 ± 0.45
- ATTATATGTAACACGTGTACCTATTTATGTATGCTT [XGTACX_site5748] — within error, 9.11 ± 0.37
- TATAATATTTACGACAGTACATATATATATATGTAT [XGTACX_site8332] — within error, 8.86 ± 0.36
- AAATAATTTGTTGACACACACACACCCATACATATA [CACACA_site2285] — higher, 9.86 ± 0.21
- TACATATAAAAGTACACACACACACCCATATATATA [CACACA_site941] — higher, 10.1 ± 0.3
- ATGGACTTTTATAGTTGTACATACTATGAGAACTTT [XGTACX_site2800] — within error, 8.75 ± 0.31
- TAAAATAAATTGTGCACACATATTTATAAATATGAA [CACACA_site2331] — the same, 9.03 ± 0.52
- TATTGCCCGAAACACACACACATATATATATATATA [CACACA_site2491] — higher, 10.01 ± 0.05
- GTTTATCACAGCCACGCACACATAATATATGTATAT [CACACA_site3669] — within error, 9.29 ± 0.35
- ACAAAAAAATAAGGTGCACACAAAAAAAAAAAAAAA [CACACA_site8171] — within error, 9.13 ± 0.54
- TATATGGCATATTTCACACACACATAATGAATATTA [CACACA_site9181] — within error, 9.39 ± 0.35
- TTTTTTTTTTTTTGATGTACTTATTTAATAAGATAT [XGTACX_site376] — within error, 8.38 ± 0.47
- GAGTTCAGTTTTTGTTGTACTTATTCTTAATATGTC [XGTACX_site6083] — within error, 8.97 ± 0.45
- ATATAGCATATAATTTGTACACAGGCCATACCTGAA [XGTACX_site533] — within error, 8.79 ± 0.35
- AGATGATATACGTAAACACACAAATAAAAAAAATTT [CACACA_site3327] — within error, 9.04 ± 0.47
- TTTGTTTTATCTTATATGCACACGATAAAAAAAAAA [CACACA_site2673] — within error, 8.47 ± 0.3
- ATCCAAAAAATTAATGCATGCGCAAAAAATAGCTTA [TGCATGCA_site615] — within error, 8.69 ± 0.4
- AAAAAAAAAACATACACACACATATATATATATATG [CACACA_site1586] — within error, 9.46 ± 0.3
- TGTCCTTATTTGCACACACACATATAAGAAATTTAA [CACACA_site7485] — within error, 9.41 ± 0.2
- AAAAAAGACCATGTTAGTACATAAGATTTTTTTCAT [XGTACX_site4298] — within error, 8.66 ± 0.48
- TTTGACATACCTCTTGCATGTGAAAAACTTTTCGCT [TGCATGCA_site364] — within error, 8.74 ± 0.58
- ATATATAATATTTATTGTACTATTTTATTTTTATAA [XGTACX_site705] — within error, 8.55 ± 0.45
- ACTCTTTTAACGCAAAGTACTTTTTAAAATATTTCG [XGTACX_site7534] — within error, 8.78 ± 0.49
- AACATACGAATATTCACACATAAATATATAAATCGC [CACACA_site4672] — within error, 9.13 ± 0.31
- ATTTCTATTTGGGTTAGTACATATAAGTCTATTTTC [XGTACX_site3234] — within error, 8.86 ± 0.43
- TTTTTTTTTTCTTTTTGTACATATTCATAACAAGTA [XGTACX_site2784] — within error, 8.39 ± 0.58
- TATATAATCGAGTGCACACACAAAAAAAAAGTGAAC [CACACA_site1483] — within error, 9.59 ± 0.42
- TATTATATATATATCACACATATATTCATGTACATA [CACACA_site5432] — within error, 8.89 ± 0.33
- AATACGTTATTATTTTGTACATATAAATAATAAGTT [XGTACX_site815] — within error, 8.63 ± 0.37
- ATATATATATATATATGTACACATATTATAAAAAAA [XGTACX_site8644] — within error, 9.05 ± 0.24
- ATATATATTATATAGTGTACCTATGTATAATAATAT [XGTACX_site1683] — within error, 8.76 ± 0.4
- TATATATATAAATACACACACACCGTCCGTGTTAAA [CACACA_site5623] — within error, 9.27 ± 0.2
- TAACTCTATTTTTTTGCATGCTGAAGCTATGAGTTT [TGCATGCA_site821] — within error, 8.81 ± 0.45
- TATGTAGGTAAAAATTGTACTTTTTTTTTAATATTT [XGTACX_site2303] — within error, 8.4 ± 0.41
- TGAATAAATATAAAAGGTACACATATAAATATATAT [XGTACX_site6349] — within error, 8.91 ± 0.4
- TGACATAATGTGTGTAGTACATATATCGTTATTTGA [XGTACX_site5152] — within error, 9.11 ± 0.37
- ATAAAAATAAAATAAGGTACAGACGAAAAAATTGAA [XGTACX_site5097] — within error, 9.02 ± 0.49
- ATAATATTATGTGTGAATATATCTTTAAAAAGGATA [GTGCAC_negctrl_site15] — within error, 8.97 ± 0.52
- TATATATTTCATAATACACACGAAAAAAAAAAAAAA [CACACA_site8972] — within error, 8.72 ± 0.45
- CACAAAAATAGACACACACACATATAAATAAATATA [CACACA_site6598] — within error, 9.7 ± 0.38
- TATAAAATAAAAGTAAATATATATATATATATATAT [TGCATGCA_negctrl_site208] — within error, 9.4 ± 0.35
- TTCTAGAAAACTGATCGTACAAATAAATATAGACAC [XGTACX_site2808] — within error, 8.78 ± 0.46
- ATATATTATAATGATACACACAAGAAATAAAATTAC [CACACA_site3095] — within error, 9.12 ± 0.35
- AATGCATACACATATTGTACTAAGCCATACAACACA [XGTACX_site305] — within error, 9.01 ± 0.33
- AAAATAGGGATCACGTGTACATATAAAGTGACATAC [XGTACX_site8190] — within error, 9.21 ± 0.51
- AAAAATAAATTTATATATTACAAGAACAAATATAGT [XGTACX_negctrl_site567] — within error, 8.71 ± 0.53
- GAATAAATAAGATACGTACACACATATACAAAATAT [CACACA_site3660] — within error, 9.34 ± 0.39
- ATAATATAAACGTATACACACAAGAGAAGCATAAAG [CACACA_site2889] — within error, 9.37 ± 0.35
- AAAAGGAAAGGAAAGGGTACAATCCTATTATATTAT [XGTACX_site8652] — within error, 8.71 ± 0.56
- TTTTTTTAAAAAAAGGGTACATATATATATTTTTCT [XGTACX_site1066] — within error, 8.43 ± 0.49
- TATATATCTATAAACACACACCAAAATTTGTGCTTT [CACACA_site7448] — within error, 9.12 ± 0.47
- ATAAAATGAACAAACACACACACATATATTTATATA [CACACA_site7181] — higher, 9.84 ± 0.16
- AAATAAAAAGAAAAGAAAAAGAAAATAAAAAGAGAA [XGTACX_negctrl_site14] — within error, 8.79 ± 0.67
- ATATACTTTAAAGGTTAAGAAAGAAAAAAAAAAAAA [CACACA_negctrl_site956] — within error, 8.31 ± 0.49
